Source: the supplement of paper PMC11417369
This is one part of the list.

The sequences below were run on PfSIP2 AP2 domain 1 (GST-tagged) (assay: gcPBM binding intensity (ln(normalized median fluorescence intensity)); higher = stronger DNA binding).
In short: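 An Agilent 4 × 180k array of primer-extended double-stranded 36-bp intergenic genomic probes, with negative controls, was incubated for 1 h with GST-tagged P. falciparum DNA-binding domains expressed in E. coli. Alexa488 anti-GST antibody detected bound protein, scanned at 488 nm. Binding intensity is the highest Masliner-normalised natural-log median intensity across replicate spots of either probe orientation.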

Row | Sequence | gcPBM binding intensity (ln)
1 | GCTAATAATAAAAGCATAATGAACAAACACCCAGTA [CACACA_negctrl_site806] | 7.29
2 | TTATATAACACGGGGAGGACACAAGAAATAAAGAGC [XGTACX_site2148] | 7.65
3 | TTTTTCTGTTTTTATAGCCTTCTCATAATACATAAA [TGCATGCA_negctrl_site355] | 7.14
4 | TATACGCAGAAACACACACACAAAAAAAAAAAAAAA [CACACA_site427] | 7.12
5 | TATAATAAATCGAACTGTACATATATATATATATAT [XGTACX_site7097] | 9.65
6 | ATTCGGATCTATAAGTGTACACAATCTAGCGAAAAG [XGTACX_site3088] | 6.9
7 | TTTATTCAAATATAATGTACTTTCTACAAATTCAAT [XGTACX_site8119] | 6.81
8 | CATATATAAATATATACACACATATATATATATATA [CACACA_site1365] | 9.43
9 | ATTTTTTTTGCTAAGTGTACACAAATGTTTATTAAT [XGTACX_site7440] | 7.49
10 | CAGATAAGATTTTGTGGTACTATTTATTAAATTAGA [XGTACX_site2644] | 6.68
11 | ATATTTTCCCTTTATAGGAGCACAAAAATTAAATGT [CACACA_negctrl_site1114] | 7.09
12 | TTTTGGTTAATTCCCCCCATTACATTATGTCATGTC [CACACA_negctrl_site229] | 8.48
13 | TTTCATTTTTTTACATGTACGCAAAAGTGTGTAGTT [XGTACX_site6582] | 7.04
14 | TAATACTTATATAAAGGTACACAATTTAACCGAATG [XGTACX_site7173] | 7.06
15 | GTAAATATTCATATATGTACTTATGATATTTGCTAA [XGTACX_site6828] | 6.8
16 | ACATATATATATATATATTGATTTATTTATTTCCCT [CACACA_negctrl_site659] | 7.44
17 | ATATATATATATAAATGTACAAAAATATATATGTAA [XGTACX_site4531] | 9.37
18 | AAGAAAGAGTTCTGTTGTACAAAATATTAATATGTA [XGTACX_site7213] | 7.1
19 | CTTCCTTAGGAATGTACACACATATAAAATATGTTG [CACACA_site6355] | 7.07
20 | TTTATTAAGAAACACACACACACACCCAAAATAAAA [CACACA_site242] | 7.15
21 | CTTTATTATAAGATTACACACATGTGTTCTAATTTA [CACACA_site7479] | 6.98
22 | TAATTAACTTTATATGCATGTTAAAAATGTTATAAG [TGCATGCA_site761] | 6.97
23 | TATAAACAAAACAAAACATGCATAATACTATAAATT [TGCATGCA_site333] | 6.86

Row | Sequence | gcPBM binding intensity (ln)
24 | AACAAAATAAAAAGTAATCTTATTTATTAAAATTTT [CACACA_negctrl_site419] | 6.64
25 | AAAGAAAGAAAACACACACACATATATATATATCAA [CACACA_site3743] | 7.06
26 | TTTTTGTCTGCATACGCACACACGTGGACCATCTTA [CACACA_site8303] | 7.05
27 | TATATATATATATGTACACACACACCGATAAATAAA [CACACA_site8041] | 9.63
28 | CTATTTAAAATATGAACACACATTATTTGTTTTAGA [CACACA_site2713] | 6.79
29 | ATATCATTATATAGTTGTACATATTTATTTATTTAT [XGTACX_site8995] | 7.06
30 | AAAAAAAAAAATACTAGTACGTAAAATTATATAAAT [XGTACX_site3019] | 6.97
31 | AATATAGGAATATGCACACATATATACCTACATACA [CACACA_site4939] | 7.21
32 | ATTTCCCATACACGTTGTACAATGTAGAGAAAGTAT [XGTACX_site4586] | 6.98
33 | GATATGTGTATAATATGTACATATATATATATATAT [XGTACX_site6531] | 9.33
34 | TTTTACGTGAGTAATACACACATATAAGTTTATATA [CACACA_site4120] | 6.74
35 | GGCATACACGAACACACACACACACGCACATATATA [CACACA_site6426] | 7.7
36 | TATAACTTTTTTAATACACACAAATATTTATTTATA [CACACA_site7425] | 7.04
37 | TACCACTTTCGAAGTAGTACATGGCTTTTTTTTTTT [XGTACX_site8379] | 6.8
38 | TGTATGTTAAATACAACACACAAAAAAAAACAAGTT [CACACA_site4324] | 6.85
39 | TATACAGATAAATACACACACATATATATATATATA [CACACA_site4178] | 9.72
40 | ATATATATATGTGTGTGTACATATGATTTCGCACTT [XGTACX_site4449] | 8.85
41 | GTTATAATTTAGTCAAGTACATGCGTATGTATATTC [XGTACX_site3763] | 6.92
42 | CACAGAAATATTCTTATACACACTGTTCTTATATTC [CACACA_site288] | 6.82
43 | TAATATATATTATATACACACATATATATATATATA [CACACA_site428] | 9.6
44 | TGAAATAACCCATGTGCATGCACTTCAATAACTGAA [TGCATGCA_site1041] | 8.63
45 | TATAAATTAAAATCAGTGCATATTTTGAAAAACCTC | 8.89
46 | ATATTATTATTAGTTTCACACATTTAATGAAACTAA [CACACA_site5677] | 7.05

Row | Sequence | gcPBM binding intensity (ln)
47 | TATAAATTATAAATTGCACACATATTTTTATATTTA [CACACA_site8974] | 7.03
48 | TATATATATATATATTGTACATATTAATATTAGAAA [XGTACX_site8923] | 9.19
49 | ATTACCATATAAAACACACAAACATACATACATACA [CACACA_site3729] | 8
50 | TGGAGGTCAGTTCACAGTACCCAGAAACTCTACGAG [XGTACX_site2007] | 6.61
51 | TTACATGTAAAAGGTACACACATTAGATATACAAAT [CACACA_site6651] | 6.94
52 | AATACTCAAAAGAATCGTACAAACAACACTCCCACG [XGTACX_site7564] | 7.14
53 | TATCATACCTTTTAATGTACACACATTTCTTTTTTG [XGTACX_site1655] | 7.39
54 | TAATATATAAAAAGATGTACTTTTGCAAGTTCCTTT [XGTACX_site8519] | 6.72
55 | GGACTTTATAAAAATGGTACACGCAATTCTATAATC [XGTACX_site6515] | 6.89
56 | GGTACATACAAACACACACACAAAAAAAAAAAAATA [CACACA_site1577] | 7.2
57 | ATATATATATATGTATGTACGTATGTATGTATGAAT [XGTACX_site4857] | 9.19
58 | TATTGTATAAAAATAACATGCAATCCTTATACTGCT [TGCATGCA_site345] | 6.75
59 | TGTACAGTAAATACAACACACATTTGTATAAATATA [CACACA_site4705] | 6.96
60 | AATGACATTCTTACACGTACAAAATAAAAAATAAAA [XGTACX_site6932] | 7.19
61 | TATATATTATATTCATGTACGTAAAAATTTTGAATA [XGTACX_site6734] | 7.1
62 | ATTTATTTTATAATATATAAATGATATATCTTATTA [CACACA_negctrl_site66] | 6.56
63 | CCATATGATATATATTGTACATTATATATTATTTCT [XGTACX_site1697] | 6.92
64 | TATGTTGTTTATTTAGTGCATATTTAAATATTATAA [GTGCAC_site9601] | 9.09
65 | TTTTCTTTCTTGTTTCGTATATTATAAAAAAAAAAG [CACACA_negctrl_site854] | 7.25
66 | GTATTTTGCATAAATGCATGTAAATATATACCTACC [TGCATGCA_site957] | 7.28
67 | TATTTGGGTATTTTTACACACATTAAAATATATATA [CACACA_site5800] | 7.05
68 | CAGTTGTTAATTTGTGTGCACCAAATATTATACATA | 11.2
69 | ACATATGAATATAATACACACTTGTATTCTTAATAT [CACACA_site5085] | 6.94

Row | Sequence | gcPBM binding intensity (ln)
70 | ATAATTCCATAAAATAGACACACGAATGTATAATAT [CACACA_site477] | 7
71 | TGTAGATAAAATAAACGTACGTATTGATTTTTTTCA [XGTACX_site1610] | 6.72
72 | TATTTGTAAAGACATGCATGGTACTTTTAAAACATA [TGCATGCA_site7] | 7.16
73 | TTAATATTTGTTCTGATCCTTTTATTCAACTTTTTT [CACACA_negctrl_site536] | 6.77
74 | TGGTAATACCCATACACACACACATACACATATATA [CACACA_site8877] | 7.12
75 | TCTAATTTAAAATACACACACATATCTATAATATAT [CACACA_site7029] | 6.85
76 | GTATAAAAATTTAGGAGTACAATATATTTATAATAT [XGTACX_site2127] | 7.2
77 | TTTTTGTATTCTCCGGACTACATTATGTTGTAAATG [CACACA_negctrl_site691] | 6.9
78 | GTAATAAAAAATTAATGTACTTTATATAATATATTA [XGTACX_site5935] | 6.95
79 | ACAGAATACATATACACACATACAAAAAAGTGCATA [CACACA_site987] | 7.81
80 | TCATACTGTATATTTTGTACTTATATATATATTATA [XGTACX_site6136] | 6.99
81 | CATTATGTTGTAAATGCACACATACATATACACAGT [CACACA_site8990] | 7.36
82 | TTATTTTGTTTTAAAAGTACACACTTTTAATTAGAT [XGTACX_site2271] | 7.07
83 | ATAATAAGCAAACACACACACACAAAAAAAAAAAAA [CACACA_site720] | 7.14
84 | TATATAAACACGTACACACACATATAGGTATTTATA [CACACA_site7615] | 7.45
85 | TACAAAAGCGATACGGCACACATTTCCTGTTTAAAT [CACACA_site2746] | 6.79
86 | AAAAGATTGCTCCGCATGCACCTCCAAAAGTTCCTT [GTGCAC_site9993] | 9.92
87 | TTTGCTTCCAAAAGTCGTACAAAAAATATTAAATAT [XGTACX_site4171] | 7.04
88 | TAAAAGGAAAAAAAAGCACACACAATATTACTTGAA [CACACA_site8831] | 6.89
89 | TATCAAAATTAGTATACACACAAAATTATTCAAATA [CACACA_site2232] | 6.83
